Hit rate of the full screen: of about 150,000 compounds, about 540 (0.36%) showed an effect of 50% or more. This is one part of the list.

The subject of this test is Plasmodium falciparum. Briefly: Primary screen in NF54 nanoGlo assay, in single point, at 2uM, 72h; a lower Z score goes with more inhibition. The test is classed as functional, Erythrocyte. The conditions noted are these: timepoint 72 hour.
Take `CCc1ccc(NC(=O)N2CCC(N(Cc3ccc(C)cc3)C(=O)CN(CCOC)S(=O)(=O)c3ccccc3)CC2)cc1`: the “% Inhibition” value was determined as 6% and the Z score is -0.81.
Consider `O=S(=O)(N1CCCCCC1)N1CCC[C@H]1c1ccccc1`, for which the “% Inhibition” value is 2% and the Z score was -0.34.
Turning to `O=S(=O)(NC[C@](O)(c1ccsc1)c1cccs1)c1cccnc1`, the “% Inhibition” value was -11% and the Z score is recorded as 1.73.
The matching figures for `CNC(=O)COc1c(Br)cccc1Br`: -27% and 3.12.
On the same counts, the results for `CCCCCC(=O)Nc1nnc(-c2ccc3c(c2)OCO3)s1` are 7% and -0.83.
The matching figures for `Cc1cc(C)c2[nH]c(C(=O)N(CCO)Cc3nccs3)c(C)c2c1`: -3% and 0.57.
`CCCCc1nn(CC(=O)NC)c(=O)n1Cc1ccccc1`: the “% Inhibition” value is -17% and the Z score worked out at 1.48.
`CC(C)[C@H](CNC(=O)c1ccccc1OCc1ccncc1)c1ccccc1`: the “% Inhibition” value was -1% and the Z score was found to be 0.15.
Take `Cc1ccc(CN2CCCn3nc(C(=O)N(C)CC(=O)NCC4CC4)cc3C2=O)cc1`: the “% Inhibition” value was -25% and the Z score was 2.24.
On the same counts, the results for `CC[C@H](C)N(CC(=O)N1CCN(c2ccc(-c3ccc(OC)c(OC)c3)nn2)CC1)C(=O)c1ccc(Cl)cc1` are 0% and 0.01.
The matching figures for `O=C1C[C@H](Cc2ccc(NCC3=Cc4ccccc4OC3)cc2)C(=O)N1`: 5% and -0.75.
Consider `COc1ccc(N2C(=O)C3ON(c4ccccc4)C(c4cccnc4)C3C2=O)cc1` (stereo not given), for which the “% Inhibition” value is listed as -6% and the Z score amounted to 0.97.
On to `Cc1csc(CN(C)C[C@H]2CCS(=O)(=O)C2)n1`, for which the “% Inhibition” value is on record as 28% and the Z score is -3.15.
For the compound `O=C(NC1CCCC1)N1CCC[C@H](C(=O)N2CCc3[nH]ncc3C2)C1`, the “% Inhibition” value is -5% and the Z score was determined as 0.8.
On to `COc1ccccc1-c1noc([C@@H]2CCCN2C(=O)c2ccsc2)n1`, for which the “% Inhibition” value was 5% and the Z score was -0.79.
On the same counts, the results for `O=C(NCCC(F)(F)F)NC[C@H]1CC[C@@H](c2ccccc2)O1` are -1% and 0.15.
The matching figures for `O=C(c1ccsc1)N1CCCC[C@H]1c1nc(-c2cccnc2)no1`: -8% and 0.88.
On the same counts, the results for `N#C[C@@H](NC(=O)c1c[nH]c2ncccc12)c1cccc(Cl)c1` are -5% and 0.94.
Turning to `CCCO[C@H]1CCCN(C(=O)c2ccsc2S(N)(=O)=O)CC1`, the “% Inhibition” value was 2% and the Z score was -0.29.
The matching figures for `CC1(C)CN(C(=O)c2nn(-c3cccc(F)c3)c3c2CCC3)C[C@@]2(CCOC2)O1`: 1% and -0.11.
The matching figures for `Cc1ccc2ccc3cc(C(=O)Nc4ccc(C)c(F)c4)[nH]c3c2n1`: 9% and -1.54.
As to `C[C@]1(O)CCN(c2cc(N)ncn2)C[C@H]1Cc1ccccc1`, the “% Inhibition” value is on record as -4% and the Z score was determined as 0.71.
`C#CCN(CC#CC)Cc1csc(C)n1`: the “% Inhibition” value was -4% and the Z score amounted to 0.6.
On the same counts, the results for `FC(F)(F)c1cnccc1N1CCc2[nH]ncc2C1` are -11% and 0.97.
The matching figures for `c1ccc(-c2nnc[nH]2)c(OCc2noc3c2CCCC3)c1`: -3% and 0.42.
The matching figures for `c1cnc(-c2ccn(-c3cncnc3)n2)cn1`: -3% and 0.48.
As to `CC(C)CCn1ncc(NC(=O)NC2CC(O)C2(C)C)c1C(C)C` (stereo not given), the “% Inhibition” value is -7% and the Z score came out at 0.91.
As for `Cn1ncnc1NC(=O)c1sccc1OC(F)F`, the “% Inhibition” value is given as -1% and the Z score is 0.1.
The matching figures for `CCS(=O)(=O)N1CCN(Cc2ccc(OC)nc2)CC1`: -7% and 0.88.
The matching figures for `COCC1(CC(=O)N2CC(c3nc(-c4ccccc4)no3)C2)CC1`: -2% and 0.23.
The matching figures for `COCC(=O)NCCCc1ccc(Br)cc1F`: -11% and 1.61.
Regarding `CCc1noc(COc2nc(C(C)(C)C)no2)n1`, the “% Inhibition” value is on record as -13% and the Z score was determined as 1.32.
The matching figures for `Cc1cccnc1C[C@H](C)NC(=O)Cn1nnnc1CN1CCCC1`: -3% and 0.37.
On the same counts, the results for `COc1ccc(CN2CC[C@H](N3CCC(CO)CC3)C2=O)cc1` are -3% and 0.58.
On the same counts, the results for `O=c1c2cnccc2ncn1[C@@H]1COC2(CCCCC2)C1` are -2% and 0.42.
On to `Cn1ccc([C@@H]2CCCCN2C(=O)c2ccc3sccc3c2)n1`, for which the “% Inhibition” value was -17% and the Z score is 1.97.
Take `O=C(CNC(=O)c1ccsc1)Nc1cc(C(F)(F)F)ccc1O`: the “% Inhibition” value is on record as -9% and the Z score is on record as 1.48.
With `COc1ccc(CN2C[C@H]3CN(Cc4ccc(S(C)(=O)=O)cc4)CCN3C2=O)cc1`, the “% Inhibition” value turned out to be 11% and the Z score is -1.3.
On the same counts, the results for `C[C@H]1c2ccc(F)cc2CCN1S(=O)(=O)c1cccnc1` are -9% and 1.56.
On the same counts, the results for `Cc1c(F)c(F)c(CN2CCOC2=O)c(F)c1F` are 1% and -0.16.
On the same counts, the results for `CCC(C)[C@H](NS(=O)(=O)c1ccc(C)cc1)C(=O)N1CCC(C(=O)NC2(C(=O)O)CCCCC2)CC1` (stereo not given in full) are -13% and 1.66.
`CN(CCCc1nccn1C)C(=O)Cn1ccc2ccccc21`: the “% Inhibition” value is reported as -4% and the Z score came out at 0.67.
On to `CCOC(=O)[C@H]1CCCN(C(=O)c2nc(C3CCC3)oc2C)C1`, for which the “% Inhibition” value is listed as 0% and the Z score came to 0.03.
The matching figures for `CC1(C#N)CN(C(=O)NCC(F)(F)F)C1`: 5% and -0.67.
Regarding `Cc1cnc(C(=O)Nc2ncc(Cc3cccc4ccccc34)s2)cn1`, the “% Inhibition” value was -11% and the Z score was determined as 1.41.
On the same counts, the results for `COc1ccc(N2CCCN(Cc3ccccc3)C2=O)c(NC(=O)Cc2ccc(F)cc2)c1` are 0% and 0.02.
The matching figures for `CCN(CCCN1CCCC1)S(=O)(=O)c1cnc(C)c(C#N)c1`: 3% and -0.52.
On the same counts, the results for `CCC1CC(NC(=O)NC2CCCN(C)C2=O)CCO1` (stereo not given) are -3% and 0.63.
As for `CCC1CCN(C(=O)Cc2cnoc2)CC1`, the “% Inhibition” value was -5% and the Z score amounted to 1.07.
On the same counts, the results for `CC1(C)C(=O)NC(=O)N1CC(=O)OCc1cccc2cccnc12` are -7% and 0.97.
The matching figures for `CS(=O)(=O)N1C[C@H]2CC[C@@H](C1)N(C(=O)c1ccc(Cl)cc1O)C2`: -13% and 2.36.
The matching figures for `Nc1ccc(Oc2nc3ccccc3s2)c(Cl)c1`: -8% and 1.55.
As to `CCN(CC)CC[C@H]1CN(C(=O)c2ccc(N(C)C)cc2)CC[C@H]1CC(=O)O`, the “% Inhibition” value is 2% and the Z score is -0.25.
The matching figures for `CCCCNC(=O)Nc1cccc(C#CCO)n1`: -11% and 1.08.
On the same counts, the results for `COc1ccc(C2CC(O)(C#Cc3ccccc3)C(C)C(c3ccc(OC)cc3)N2)cc1` (stereo not given) are -8% and 0.74.
Consider `CN(C(=O)c1cccs1)c1cccc2ncccc12`, for which the “% Inhibition” value is recorded as 5% and the Z score is on record as -0.5.
The matching figures for `CN(C)c1ccc(NC(=O)c2cn(C)nn2)cc1`: 1% and -0.21.
For the compound `Cn1nnc2c(C(=O)N3CCC(C(F)F)CC3)ccnc21`, the “% Inhibition” value is listed as 5% and the Z score is reported as -0.7.
The matching figures for `COc1ccccc1N1CCN(C(=O)c2ccc(CN3C(=O)COc4ccc(C(C)(C)C)cc43)cc2)CC1`: 1% and -0.14.
The matching figures for `COCCNC(=O)CCc1c(-c2ccc(Cl)cc2)nc2ccc(-c3ccccc3)cn12`: -3% and 0.62.
On the same counts, the results for `CCc1cc(C(=O)N2CCC[C@@]3(CCCO3)CC2)cc(=O)[nH]1` are -5% and 0.47.
`COC(=O)c1ncn2c1C(=O)N(Cc1ccc(C)cc1)[C@](C)(C(=O)NCc1ccccc1OC)C2`: the “% Inhibition” value is given as -7% and the Z score worked out at 0.91.
On the same counts, the results for `CC(=O)Nc1ccc(C(=O)N2C[C@@H](C)N(C)[C@@H](C)C2)nc1` are -3% and 0.41.
The matching figures for `C[C@H](NC(=O)c1cnc(Cc2c(Cl)cccc2Cl)nc1O)C(N)=O`: -15% and 1.78.
On the same counts, the results for `CC[C@](C)(NC(=O)c1ccccc1)c1noc(-c2cc(C(C)C)[nH]n2)n1` are -1% and 0.09.
As to `O=C(C1COc2ccccc2O1)N1CCOC(c2ncon2)C1` (stereo not given), the “% Inhibition” value is listed as -6% and the Z score came out at 0.81.
On the same counts, the results for `Cc1ccc(C(=O)Nc2cccnc2N(C)C)cn1` are -2% and 0.26.
`O=C(NCC1CCC1)c1cccnc1O`: the “% Inhibition” value is recorded as 0% and the Z score is -0.05.
The matching figures for `CN1CC(C(=O)NC[C@@H]2C[C@H]2c2ccccc2)CC1=O` (stereo not given in full): -9% and 1.09.
The matching figures for `Cc1nn(-c2ccc(C(=O)N3CCC(Cc4ccccc4)CC3)cc2)c2c1C(=O)CC(C)(C)C2`: -11% and 0.97.
The matching figures for `CC(C)Oc1ccc(C(=O)N2C3CCC2CC(n2cccn2)C3)cc1` (stereo not given): -8% and 1.01.
In the case of `CCn1ccc(CNC(=O)N[C@H](C)c2ccc(Cl)cc2)n1`, the “% Inhibition” value is reported as 0% and the Z score was -0.01.
Consider `COc1ccc(-n2ncc(Oc3cccc(C)c3)c(Nc3cccc(C(=O)NCc4ccc(F)cc4)c3)c2=O)cc1`, for which the “% Inhibition” value stood at 41% and the Z score is on record as -3.27.
The matching figures for `CCCN(C)C(=O)C1C2C(=O)N(Cc3cccc(OC)c3)C[C@@]23C=C[C@@H]1O3` (stereo not given in full): 4% and -0.57.
The matching figures for `CC(CNC(=O)N1CCCC1c1ccncc1)c1nccs1` (stereo not given): -7% and 0.99.
For the compound `CN(Cc1nccs1)S(=O)(=O)Cc1ccc(Cl)cc1F`, the “% Inhibition” value is on record as -2% and the Z score was found to be 0.4.
The matching figures for `CN(Cc1ccccc1Cn1cccn1)[C@H]1COC[C@@H]1O`: -10% and 0.92.
The matching figures for `Cc1cccc(CN2CCC[C@@]3(CCN(C(=O)c4cc(C)oc4C)C3)C2)c1`: -10% and 0.93.
On the same counts, the results for `COc1ccc(S(=O)(=O)N(Cc2cc(C3CC3)no2)c2nccs2)cc1` are -10% and 1.88.
Turning to `COc1nc(CNC(=O)Nc2ccccc2)nc(N2CCOCC2)n1`, the “% Inhibition” value was 7% and the Z score is -0.85.
On the same counts, the results for `CC(C)C[C@H](NC(=O)Nc1cccc(-c2nnn(C)n2)c1)C(N)=O` are 10% and -1.23.
Turning to `CCc1nn(C)c(OC)c1CNc1nnc(C(C)(C)C)o1`, the “% Inhibition” value is -9% and the Z score was determined as 1.15.
As to `CC(C)C[C@@]1(C)CC(=O)N(CCC#N)C1=O`, the “% Inhibition” value was -3% and the Z score came to 0.44.
The matching figures for `O=C(O)[C@H]1CCCN1Cc1coc(-c2ccc(F)cc2)n1`: -1% and 0.19.
Turning to `Cc1cccc(Nc2nc(C(=O)N3CCCC[C@@H]3C)nc3ccccc23)c1`, the “% Inhibition” value was 11% and the Z score is listed as -2.13.

For orientation: % Inhibition means the drop in the measured response relative to a control, in per cent.

The values are drawn from ChEMBL document CHEMBL4888484, “Replenishing the malaria drug discovery pipeline: Screening and hit evaluation of the MMV Hit Generation Library 1 (HGL1) against asexual blood stage Plasmodium falciparum ,using a nano luciferase reporter read-out” (2022).
